Measured values taken from PMC4336329 (PLoS ONE, 2015).
Among all 310,000 compounds or so, about 14,000 (4.5%) showed an effect of 50% or more. Effects have a minus sign here. Some of the results follow.

biological target: human ether-à-go-go-related gene (hERG) potassium channel (human, UniProt Q12809); experiment: primary screen, population patch clamp on CHO cells stably expressing hERG
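Also: peak tail current of the secondary pulse compared with the same well before compound.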

human ether-à-go-go-related gene (hERG) potassium channel, sequence (Q12809 whole entry, looked up): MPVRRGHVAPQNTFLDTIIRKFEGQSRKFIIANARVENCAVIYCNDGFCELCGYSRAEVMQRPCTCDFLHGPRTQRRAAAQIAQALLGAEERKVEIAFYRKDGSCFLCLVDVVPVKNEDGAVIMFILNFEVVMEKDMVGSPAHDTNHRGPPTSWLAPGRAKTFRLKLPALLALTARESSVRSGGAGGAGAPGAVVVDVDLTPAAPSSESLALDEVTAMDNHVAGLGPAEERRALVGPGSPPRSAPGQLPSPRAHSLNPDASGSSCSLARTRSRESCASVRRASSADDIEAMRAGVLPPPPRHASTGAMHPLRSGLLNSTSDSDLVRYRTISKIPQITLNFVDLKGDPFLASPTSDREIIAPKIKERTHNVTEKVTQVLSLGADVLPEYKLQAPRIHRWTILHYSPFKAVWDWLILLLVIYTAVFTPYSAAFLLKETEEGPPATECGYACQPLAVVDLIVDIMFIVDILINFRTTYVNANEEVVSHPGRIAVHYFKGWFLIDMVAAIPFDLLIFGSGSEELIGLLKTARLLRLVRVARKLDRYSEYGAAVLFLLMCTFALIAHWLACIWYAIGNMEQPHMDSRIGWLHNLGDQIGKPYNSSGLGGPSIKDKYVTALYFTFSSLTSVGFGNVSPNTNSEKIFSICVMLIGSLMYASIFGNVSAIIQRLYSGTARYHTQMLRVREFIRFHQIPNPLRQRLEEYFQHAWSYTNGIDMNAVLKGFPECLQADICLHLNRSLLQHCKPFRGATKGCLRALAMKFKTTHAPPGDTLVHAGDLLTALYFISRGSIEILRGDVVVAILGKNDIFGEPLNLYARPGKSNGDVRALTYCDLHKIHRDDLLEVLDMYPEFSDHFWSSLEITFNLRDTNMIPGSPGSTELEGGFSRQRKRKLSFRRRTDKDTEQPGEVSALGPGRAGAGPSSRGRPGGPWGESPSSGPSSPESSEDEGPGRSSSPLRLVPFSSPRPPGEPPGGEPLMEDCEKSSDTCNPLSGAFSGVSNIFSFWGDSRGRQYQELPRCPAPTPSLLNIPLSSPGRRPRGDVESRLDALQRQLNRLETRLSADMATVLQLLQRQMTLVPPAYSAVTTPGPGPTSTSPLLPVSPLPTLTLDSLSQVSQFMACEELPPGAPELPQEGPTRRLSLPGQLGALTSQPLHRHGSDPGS

Row | Compound | hERG current change (%, negative = inhibition) at 10uM [%]
1 | COc1ccccc1C(CNc1ccc(S(=O)(=O)N2CCCC2)cc1[N+](=O)[O-])N(C)C (stereo not drawn) | -20.5
2 | CCc1ccc(NC(=O)Cn2c(=O)n(CCCC(=O)NCc3ccco3)c(=O)c3ccccc32)cc1 | 1.22
3 | Oc1ccc(N2CCN(C(c3cccnc3)c3nnnn3Cc3ccccc3)CC2)cc1 (stereo not drawn) | -21.2
4 | Cc1cc2cc3c(cc2nc1SCC(=O)O)OCCO3 | 9.04
5 | CCOc1nc(SCCOc2ccc(C)cc2)nc(N(C)C)n1 | -9.27
6 | COc1ccc(-c2c(=O)n(OCc3ccccc3[N+](=O)[O-])c3ccccc3[n+]2[O-])c(OC)c1 | -5.32
7 | CCN(CC(=O)Nc1ccc(NC(C)=O)cc1)C(=O)/C=C/c1cn(-c2ccccc2)nc1-c1cccs1 | 0.487
8 | COC/C=C/C1=CC2=CC(=O)C(C)(OC(=O)c3cnc4ccccc4n3)C(=O)C2=CN1CCOC (stereo not drawn) | 13.3
9 | CCOc1ccc2nc(N(CCCN(C)C)C(=O)c3ccc(S(=O)(=O)N4CCc5ccccc5C4)cc3)sc2c1.Cl | -1.08
10 | CC(=O)Nc1ccc(C)c(NS(=O)(=O)c2cccc(C(F)(F)F)c2)c1 | 3.63
11 | O=C(CNc1cccc(S(=O)(=O)N2CCOCC2)c1)Nc1ccccc1F | -6.55
12 | Cn1c(CC(=O)Nc2ccccc2Cl)nnc1SCC(=O)Nc1nncs1 | 22.7
13 | CN1CCN(C2=Nc3ccccc3Oc3ccc(Cl)cc32)CC1.O=C(O)CCC(=O)O | -6.25
14 | CC1Cc2c([nH]c3ccccc23)C2c3ccccc3CN12 (stereo not drawn) | -7.69
15 | O=C1CC(=O)CC(c2ccccc2Cl)C1 | 7.85
16 | COc1ccccc1NS(=O)(=O)c1cccc(C(=O)NCc2ccco2)c1 | -18.7
17 | Cc1ccc2nc(N3CCN(C)CC3)c(C=O)c(=O)n2c1 | 5.3
18 | CN(C(=O)c1cccc(NC(=O)c2ccccc2)c1)C1CCCCC1 | -9.26
19 | O=C(O)c1ccc(OCC(O)Cn2cnc3ccccc32)cc1 (stereo not drawn) | 9.74
20 | COc1cccc(CCNC(=O)c2ccc(C#N)cc2)c1 | -18.8
21 | OCCC1CN(Cc2ccncc2)CCN1C1CCCC1 (stereo not drawn) | -8.58

Row | Compound | hERG current change (%, negative = inhibition) at 10uM [%]
22 | CC1CC(C)CN(CCCNC(=O)c2ccc(CS(=O)(=O)Cc3cccc(Cl)c3)o2)C1 (stereo not drawn) | -69.1
23 | COc1ccc(C)cc1NC(=O)c1cccc(C(=O)Nc2cc(C)ccc2OC)n1 | 1.3
24 | COc1ccc(NC(=O)CC2C(=O)N(Cc3cccs3)C(=S)N2C(C)C)cc1 (stereo not drawn) | 4.67
25 | CCc1cc(=O)oc2cc(OS(C)(=O)=O)ccc12 | -5.44
26 | O=C(CSc1nc2ncc(Cl)cc2[nH]1)Nc1ccccc1-c1ccccc1 | 14.5
27 | CN1CCN(C(=O)/C=C/c2ccc(C#N)cc2)CC1 | -54.3
28 | CC(=O)NC(C)Cc1cn(Cc2ccccc2)c2ccccc12 (stereo not drawn) | 16.3
29 | COc1ccc(-n2nc(C)c3c(=O)c4c([nH]c32)CCCC4)cc1 | 4.08
30 | CCN(CC)S(=O)(=O)c1ccc(-c2nnc(SCC(=O)Nc3ccc(OC)c(OC)c3)o2)cc1 | -8.44
31 | COc1cc(CNn2cn[nH]c2=S)cc(Cl)c1OCc1ccc(F)cc1 | -22.4
32 | Cc1nn(CC(=O)Nc2sc3c(c2C#N)CCC(C(C)(C)C)C3)c(C)c1[N+](=O)[O-] (stereo not drawn) | 8.48
33 | COc1c(S(=O)(=O)NCCCN2CCOCC2)ccc(Cl)c1Cl | -6.95
34 | CC(C)CC(c1nnnn1C(C)(C)C)N1CCN(C2CCCC2)CC1.Cl (stereo not drawn) | -5.12
35 | CCN1CCN(Cc2ccc(NC(=O)c3ccc(C)c(NC(=O)N4CCNC4=O)c3)cc2C(F)(F)F)CC1.O=C(O)C(F)(F)F | 3.66
36 | O=S(=O)(c1ccc(=S)[nH]c1)N1CCOCC1 | 4.93
37 | Cc1ccc(NC(=O)c2cc(C)nc3ccccc23)c(Br)c1 | -15.2
38 | CC(C)(C)NS(=O)(=O)c1ccc(-c2csnn2)s1 | -1.05
39 | O=S(=O)(Nc1cccc(-c2ccc(N3CCOCC3)nn2)c1)c1cc(Cl)ccc1Cl | -26.8
40 | Cn1cc(C(c2ccccn2)c2cn(C)c3ccccc23)c2ccccc21 | 8.3
41 | CCOCCn1cnc2sc(C(=O)NCCCN3CCOCC3)c(C)c2c1=O | 4.31
42 | N#C/C(=C\C1=C(N2CCOCC2)C(=C\c2ccc(Cl)cc2)/CC1)C(=O)Nc1ccccc1F | 5.55

Row | Compound | hERG current change (%, negative = inhibition) at 10uM [%]
43 | CC(=O)Nc1ccc(NC(=S)NC(=O)C2CC2)cc1 | 15.6
44 | Br.CCOc1ccccc1OCC(=O)NN1Cc2ccccc2C1=N | -73.5
45 | COc1ccc(CNC(=O)C(NC(C)=O)C(C)C)cc1OC (stereo not drawn) | 11.5
46 | O=C(O)c1cc2ccc3cccc4ccc(c1)c2c34 | 5.41
47 | Cc1ccc(S(=O)(=O)N2CCN(C(=O)COC(=O)c3cc(C)oc3C)CC2)cc1 | 7.79
48 | COC(=O)Cc1c(OC)ccn(CCc2c[nH]c3ccccc23)c1=O | 8.74
49 | c1ccc2c(c1)OCC(c1csc3ncnc(N4CCCC4)c13)O2 (stereo not drawn) | -36.7
50 | CNc1ccc(C(O)(C(F)(F)F)C(F)(F)F)cc1C(O)(C(F)(F)F)C(F)(F)F | 14.6
51 | O=C(Cn1cccc1C(=O)c1ccccc1)NCc1ccc(F)cc1 | 4.99
52 | COC(=O)[C@]1(CC(C)C)N[C@H](c2ccc(-c3ccc4c(c3)OCO4)cc2)[C@@H]2C(=O)N(C)C(=O)[C@@H]21.O=C(O)C(F)(F)F | 14.9
53 | COC(=O)c1ccc(CNC(=O)c2ccc(S(=O)(=O)N3CCCC(C)C3)cc2)cc1 (stereo not drawn) | 0.555
54 | COc1ccc(-c2nnc(SCc3nnc(-c4ccc(Cl)cc4)o3)n2-c2ccccc2)cc1 | -56
55 | N/C(=N\OC(=O)CC1CCCCC1)c1cccnc1 | -16.6
56 | COc1ccc(/C=N/NC(=O)c2nc(-c3ccccc3)cc(-c3ccccc3)n2)cc1O | -9.34
57 | CC(NC(=O)/C=C/c1ccco1)c1nc2ccccc2n1Cc1c(Cl)cccc1Cl (stereo not drawn) | -11
58 | O=C(Cc1n[nH]c(=O)c2ccccc12)OCC(=O)N(Cc1ccccc1)Cc1ccccc1 | -33.9
59 | CCc1ccc(C2NC(=S)NC3=C2C(=O)CC(C)(C)C3)cc1 (stereo not drawn) | 11.9
60 | Cc1ccc(CC(=O)Nc2cccc(S(=O)(=O)N3CCOCC3)c2)cc1 | -21.5
61 | O=C(COC(=O)c1cccc(C(=O)OCC(=O)NC2CC2)n1)NC1CC1 | 21.5
62 | Cc1ccc(N=C2NC(=O)c3cc([N+](=O)[O-])ccc32)cc1 | -3.7
63 | O=C(/C=C\Nc1ccc2c(c1)OCO2)c1ccc(Cl)s1 | 18.7

Row | Compound | hERG current change (%, negative = inhibition) at 10uM [%]
64 | CCOc1cc2[nH]c(=S)n(Cc3ccc(C(=O)NCCCOC)cc3)c(=O)c2cc1OCC | 24.9
65 | CCC(=O)Nc1cccc(-n2nnnc2SCC(=O)N2CCCCC2)c1 | 15.3
66 | CCO/N=C1\C(=O)N(c2ccccc2)c2ccccc21 | 1.67
67 | COc1cc(CNC2CCCC2)c(Br)cc1OC1CCCC1.Cl | -45.9
68 | O=C(O)/C(=C\c1ccccc1OC(F)F)Sc1nnc(-c2ccc(F)cc2)o1 | -26
69 | CCCN(CCC)c1nc(C#N)nc(N(CCC)CCC)n1 | 9.42
70 | O=C(CCCn1nnc2ccccc2c1=O)N[C@@H](Cc1ccccc1)C(=O)O | 13
71 | O=c1[nH]c2c(cnn2-c2ccc(Cl)cc2)c(=O)n1-c1cccc(Cl)c1 | 25
72 | O=C(NCc1ccccc1Cl)c1cc2c(s1)CS(=O)(=O)C2 | -4.86
73 | O=C(NCC(c1cccs1)N1CCOCC1)c1ccc(Cl)c([N+](=O)[O-])c1 (stereo not drawn) | -31.9
74 | CCCOC1CCCN(C(=O)CCc2nnc(CCCCc3ccccc3)o2)C1 (stereo not drawn) | -23
75 | COc1ccc(CCNC(=O)CSCc2ccc(C)cc2)cc1OC | -1.96
76 | CCC1CCCCN1CCCNC(=O)c1ccc2c(c1)c(C)c(C)n2C (stereo not drawn) | -35
77 | O=C(COc1ccccc1)Nc1ccc2c(c1)Cc1cc(NC(=O)COc3ccccc3)ccc1-2 | -0.491
78 | O=C(CN1C(=O)c2ccccc2C1=O)OCCOCCN=C1NS(=O)(=O)c2ccccc21 | 6.78
79 | CCN(CC)c1nc(C)c2c(c1C#N)CC(C)(C)OC2 | 1.02
80 | COc1ccc(N=C2S/C(=C\c3ccc(Cl)c([N+](=O)[O-])c3)C(=O)N2CCN(C)C)cc1.Cl | -9.18
81 | OCC[C@@H]1C[C@@H](O)[C@H](O)[C@@]2(CCc3ccccc3O2)O1 | 20.5
82 | CCc1nc(OCCN(CC)CC)c2oc3ccccc3c2n1.Cl | -58.9
83 | Cc1c(NC(=O)c2ccc(Cl)c(S(=O)(=O)N3CCOCC3)c2)c(=O)n(-c2ccccc2)n1C | 16.6
84 | CC(C(=O)NCc1ccc2c(c1)OCO2)N(c1ccccc1)S(C)(=O)=O (stereo not drawn) | -8.81
